# Results taken from PMC6212790.
# This is one part of the list. At the low end of the ranking, values are background and their order means little.
# Molecular target: T1, GST-Rok-C97-191 (UniProt O34857)
# T1 sequence: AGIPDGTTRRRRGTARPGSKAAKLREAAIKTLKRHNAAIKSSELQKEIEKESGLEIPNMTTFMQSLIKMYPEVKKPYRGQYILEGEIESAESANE
# Experiment: protein binding microarray;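 note: rank score from −0.5 (least bound) to 0.5 (best bound)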
# Details: Rok is a gene silencer of Bacillus subtilis; high values mean tight binding; most listed sequences are background and not binding sites; double strand, one strand shown
row,Sequence,binding signal [E-score]
1,AGGGAGAA,-0.282
2,CGAAATAC,0.275
3,ACTCGCTG,-0.131
4,AGTCGCGG,-0.162
5,AATAGCTG,0.186
6,CATGACCA,-0.218
7,GGACTATA,0.0884
8,ATAAGCGA,-0.0501
9,GAACCCCA,-0.195
10,AAAGCTCA,0.0914
11,AGTACATA,0.291
12,GGTAATCA,-0.186
13,AGCCTCAC,-0.174
14,ACGGGACC,-0.104
15,CAGGGTAC,-0.111
16,AGTAAGGC,0.0133
17,AATACATT,0.267
18,TACTTTGA,0.121
19,CCGTGGCG,-0.18
20,CCATAGAC,-0.0974
21,GCCCACAA,-0.0476
22,CTTAACGA,-0.149
23,GACGATAC,0.123
24,ATGATTCG,-0.0774

row,Sequence,binding signal [E-score]
1,TCATCACA,0.0668
2,AGTTAGTA,0.287
3,GTCTGCGA,-0.0347
4,GGCATCGA,-0.0223
5,ACACGCCG,-0.172
6,CTTATATA,0.321
7,AGCTTAAT,0.115
8,AGCATTAT,0.13
9,CACGTGTA,0.0319
10,CTAAGCCA,-0.182
11,GCCCGTCC,-0.0772
12,CGGACATA,0.144
13,ACGATCAT,-0.0749
14,CGTTTGAC,-0.0968
15,AATACCTG,0.044
16,CGTTATCA,0.165
17,GGTTTATA,0.167
18,ATGGACTA,0.0139
19,TAGAGCCA,-0.133
20,AAGAATAA,0.138
21,CTGATGGA,-0.122
22,CGCGTGAA,-0.0226
23,GGGGTGAC,-0.139
24,ATAGGGGG,-0.174

row,Sequence,binding signal [E-score]
1,AACAACGT,0.203
2,ATAGCACC,0.0126
3,CCCCCGAC,-0.345
4,GCGCTGCC,-0.374
5,ATCGGTAC,0.196
6,TCACGTGA,0.0814
7,CTTTACCA,0.148
8,ACCCATCT,0.161
9,ACTTATAT,0.29
10,AATCTACA,0.365
11,ATCGCCAT,-0.0664
12,TAACAGGA,0.0477
13,AACTACTC,0.363
14,CCTTGAAC,-0.221
15,GGAGCTGA,-0.14
16,AGCAAACC,-0.0266
17,ACTACTTG,0.194
18,ATTGAGAC,-0.0534
19,GCGGGTCC,-0.0769
20,CTTATCTA,0.262
21,AGTTTTTC,0.00619
22,CAGTGTCG,-0.0001
23,CTTTCATC,-0.0985
24,GACTATCC,-0.12

row,Sequence,binding signal [E-score]
1,CGGGGGCC,-0.363
2,ACGTGTTC,-0.37
3,ACAGGGTC,-0.134
4,GCGGCTGA,-0.25
5,CATTGGTA,0.279
6,GCACGTGC,-0.0531
7,CGGTCTGC,-0.0747
8,CCAATCAG,-0.247
9,CCTTCACG,-0.165
10,CGAGGCCG,-0.353
11,GCGTTAAC,0.015
12,AGGCCGAA,0.0545
13,ATTGTGCA,0.0905
14,GACCCGTA,-0.208
15,CATTAGCC,-0.175
16,GGCTTACC,-0.267
17,ATGGATTC,-0.0387
18,ACCTTCAC,-0.123
19,ATATATTC,0.374
20,CCTCGTCG,-0.202
21,TGTCCACA,0.0307
22,GTGGACTA,-0.00746
23,CCTATGAA,-0.0431
24,GTCAGAGA,-0.191

row,Sequence,binding signal [E-score]
1,ACCTGAAC,-0.0783
2,ACCGCCAA,-0.235
3,CAGATTGC,-0.286
4,CTACAATA,0.211
5,CTACTAAC,0.223
6,TAAAGGGA,0.115
7,TGATGACA,-0.0558
8,TCCTACAA,-0.0816
9,GATTTAGA,0.00036
10,TTACCGAA,0.0862
11,ACGCTAGA,0.0335
12,GCAACTAC,0.239
13,AACCAGTT,-0.0686
14,CAGGTAGA,0.223
15,CCCCGCAG,-0.171
16,ACTCGTAC,0.0277
17,CCCTCGAC,-0.274
18,GGTTTCAA,-0.223
19,AATAACTC,0.0976
20,CGAGGTTC,-0.186
21,ATAGAGGC,-0.0489
22,CAGGTGTC,-0.123
23,ATGGTACC,0.263
24,ACCAGATA,0.238

row,Sequence,binding signal [E-score]
1,CTCGCGTA,-0.0258
2,GCGAATTA,0.175
3,AGAGGCGG,-0.269
4,CGATAACA,0.00791
5,AGATCTCG,0.021
6,ATTGTACA,0.286
7,GGCCATAC,-0.00763
8,AGTGGTTA,0.12
9,ACGGCGGA,-0.278
10,CGCACTCC,-0.328
11,GACAGGCA,-0.106
12,CGGAGCCA,-0.155
13,CATTTGAC,-0.021
14,ATTATCGC,0.0392
15,GCAGCGCA,-0.0708
16,ATAATTCG,0.213
17,CAGTCAGC,-0.115
18,ATAACCGG,-0.0804
19,CCCGCAAG,-0.354
20,CAGTATTA,0.188
21,TATGCCAA,0.00682
22,ATCATTAA,0.214
23,ACGTATTG,0.181
24,CCTATTGC,-0.125

row,Sequence,binding signal [E-score]
1,CCGCTATC,-0.142
2,CACGCTGA,-0.223
3,ACCTTAAT,0.0432
4,ATACTAAG,0.0856
5,AACGGATT,-0.128
6,GTCGTCAA,-0.152
7,AAGCTGGC,-0.16
8,AACATCTA,0.165
9,CCGGGTAA,-0.0258
10,CAAGCTTG,-0.0348
11,AGAACAAT,0.137
12,CCATTGCG,-0.135
13,AGTCTGCG,-0.00759
14,AAAGAGAC,-0.105
15,AGGGATGC,-0.18
16,CTAATCTC,0.0569
17,ATGGTGCG,-0.0845
18,ACGGAGTA,0.161
19,TCGCCGAA,-0.0816
20,GAAGAGGA,-0.151
21,ACATATTC,0.23
22,AGGGAAGG,-0.126
23,CAGAGAGC,-0.177
24,AGCGAGTA,0.148

row,Sequence,binding signal [E-score]
1,AAACTTCT,0.237
2,AGCTCACC,-0.17
3,GGTATAAA,0.352
4,AAGTCTCT,-0.0685
5,CAGCCGGG,-0.245
6,AAGGTAAT,0.114
7,AGTTGGCA,-0.0276
8,TCCTCTCA,-0.0905
9,CTCTTGCA,-0.0711
10,ATTTTCTA,0.379
11,ACTCGATA,0.17
12,AATTGCTA,0.328
13,CTTCTCGC,0.00395
14,AAGTAACT,0.16
15,GACTCGAA,-0.168
16,AATGGCCT,-0.0459
17,GTCAACCA,0.08
18,AATAAGTG,0.079
19,AGAGACTA,0.166
20,AGACTCTG,-0.121
21,CGCACGCG,-0.221
22,CACCACAA,0.183
23,GCCTCGGA,-0.327
24,CCTAATGC,-0.154

row,Sequence,binding signal [E-score]
1,GAGTAAGA,-0.18
2,AGGGAAGA,-0.141
3,GTTGCAGA,-0.0254
4,CCAACATA,0.152
5,CGTTGTGC,-0.0724
6,AGGTATCG,0.0812
7,CCAATACA,-0.0321
8,CCCTGGGC,-0.29
9,AGAGGAAT,0.0596
10,CTAAGCTC,-0.00894
11,CGCTAATA,0.286
12,TAAGATAA,0.236
13,CGGGGTAA,-0.0979
14,CTGCGCGA,-0.108
15,GCGAACTA,0.252
16,GTGGGCCA,-0.234
17,GAGCCACC,-0.191
18,GTTCCGAA,-0.0318
19,CAACCCAA,0.0668
20,CGAAAGGA,-0.126
21,AATGCTGT,0.222
22,ATGGACGG,-0.262
23,GCTCCAAA,-0.243
24,AAATATAA,0.269

row,Sequence,binding signal [E-score]
1,AAGAACGC,-0.116
2,AAAGGAGT,-0.183
3,CGTGGGAC,-0.153
4,CAGCTATG,-0.18
5,CGATCCCG,-0.289
6,GCGAAAGA,-0.208
7,GTAAATCA,0.105
8,CTGGTATC,0.138
9,CGAGCGGC,-0.178
10,CGGACGAA,-0.0418
11,GCATTGAA,0.0567
12,CCGCTCCC,-0.437
13,CGTCCCGA,-0.102
14,CTCGCAAC,0.0148
15,GACCAAGA,-0.0371
16,CAATATGG,-0.0224
17,CACCCCCA,-0.145
18,ATTACTGA,-0.0134
19,CATCTGGA,-0.158
20,GTTCCAAA,-0.044
21,AATTGCAA,-0.139
22,TCGACGAA,-0.205
23,ATTACAAA,0.137
24,ACCTGCAC,-0.0374

row,Sequence,binding signal [E-score]
1,CAATCCTA,0.268
2,GGCCACCA,-0.155
3,CTATACAC,0.151
4,AATCTCGG,0.0748
5,CGGTAGAC,-0.0972
6,CGGAAAAC,0.152
7,AAAAGCCC,-0.0743
8,GGCTGAAA,0.0758
9,GATAGGAA,0.209
10,ATGCATTG,-0.173
11,GGCGCTAC,-0.106
12,GGATGCCA,0.00414
13,GTTCCGTA,0.194
14,TGAACCAA,-0.0732
15,CTCCCCCC,-0.361
16,GGCAGTCA,-0.12
17,ACACCTCG,-0.0583
18,CTAATTTA,0.305
19,AGCTTACC,-0.119
20,AAGGTAGC,0.158
21,ATCCGCGA,0.0264
22,ACACACCC,-0.0492
23,CCCAGTAC,-0.0841
24,AGAAAATG,0.187

row,Sequence,binding signal [E-score]
1,ACCTGGTA,0.221
2,CACTATAG,0.244
3,AATGGCAG,-0.0554
4,AGTATAGC,0.121
5,GCTCTGGA,-0.0982
6,CCTCACCC,-0.16
7,GACCCAAA,-0.0755
8,AGGAAATG,-0.0248
9,GCCAAACC,-0.202
10,CAATTGGG,-0.181
11,GCCCGACC,-0.355
12,AACCAATA,0.0959
13,CAAGGTGA,-0.134
14,GGCCGATA,0.051
15,AGACGTAA,-0.00509
16,ATAAATTC,0.322
17,AGGAAGAT,0.214
18,GCCCGAAC,0.169
19,AATGACTA,0.06
20,AACTAAGG,0.192
